In the supplement of paper PMC3334620:
The full ranking holds about 33,000 sequences; the median of “E-score (-0.5 to 0.5)” is about -0.043, and the highest 2% start at about 0.37. Some of the results follow.

These sequences were tested against T1, Upc2 (UniProt Q12151) (assay: PBM E-score (8-mer binding enrichment) (E-score (-0.5 to 0.5)); higher = stronger / more preferred TF binding; most listed sequences are background and not binding sites). Conditions: protein concentration: 200 nM; construct: GST-full length.
T1 sequence: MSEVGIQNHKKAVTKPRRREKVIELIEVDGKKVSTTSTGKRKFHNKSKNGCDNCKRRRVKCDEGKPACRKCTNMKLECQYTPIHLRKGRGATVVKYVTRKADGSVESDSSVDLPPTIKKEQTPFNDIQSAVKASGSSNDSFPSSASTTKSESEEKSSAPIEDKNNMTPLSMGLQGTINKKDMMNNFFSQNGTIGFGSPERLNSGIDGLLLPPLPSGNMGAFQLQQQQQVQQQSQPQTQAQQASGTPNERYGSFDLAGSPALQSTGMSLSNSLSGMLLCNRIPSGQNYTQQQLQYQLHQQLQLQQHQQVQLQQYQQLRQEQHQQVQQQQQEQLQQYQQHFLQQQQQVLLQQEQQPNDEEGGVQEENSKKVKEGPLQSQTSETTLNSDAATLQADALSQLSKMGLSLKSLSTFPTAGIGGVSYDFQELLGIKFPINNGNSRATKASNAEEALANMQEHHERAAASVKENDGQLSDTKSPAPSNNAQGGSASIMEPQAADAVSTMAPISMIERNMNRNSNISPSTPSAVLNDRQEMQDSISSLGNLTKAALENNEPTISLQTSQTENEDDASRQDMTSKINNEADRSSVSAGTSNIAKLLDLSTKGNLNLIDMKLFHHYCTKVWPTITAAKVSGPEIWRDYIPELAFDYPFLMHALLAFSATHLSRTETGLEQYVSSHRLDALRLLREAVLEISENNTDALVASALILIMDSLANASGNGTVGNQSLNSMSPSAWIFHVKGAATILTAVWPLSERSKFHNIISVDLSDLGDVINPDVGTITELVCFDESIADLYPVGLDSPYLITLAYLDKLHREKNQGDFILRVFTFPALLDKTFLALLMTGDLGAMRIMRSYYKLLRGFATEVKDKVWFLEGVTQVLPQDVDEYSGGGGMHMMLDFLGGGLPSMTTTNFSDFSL
Method in brief: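 PURExpress in vitro transcription/translation supplied GST-tagged yeast transcription factors, either full-length or DNA-binding domain. Applied at about 100-200 nM to universal all-10-mer Agilent arrays double-stranded by primer extension, the bound protein was detected with fluorescent anti-GST. E-scores, modified Wilcoxon-Mann-Whitney statistics, were given by the Universal PBM Analysis Suite to ungapped eight-base words pooled with their reverse complements after masliner normalisation.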

| Sequence | PBM E-score |
| --- | --- |
| GAAACGTC | 0.0446 |
| TCTGAACA | 0.0695 |
| ATGTTCTC | -0.00459 |
| CTACTTTC | -0.0896 |
| AGCCGGGA | -0.212 |
| ATGTCAGC | -0.101 |
| ACGGTTCT | -0.0241 |
| CGCGGCGA | -0.148 |
| AACGGACG | 0.138 |
| AGAGTGAT | -0.0959 |
| CTTTAACA | -0.0912 |
| GTTAATTA | 0.23 |
| ATTCAAAA | 0.0167 |
| TGATGCCA | -0.0544 |
| CGGTTGTA | 0.0584 |
| CGGCGAAC | -0.0166 |
| CCGCATTA | 0.0256 |
| ATACCCTC | 0.00541 |
| AGTTATGA | -0.151 |
| ATCGAGTA | -0.0003 |
| CTTTGTGC | -0.021 |
| TCCACTCA | -0.17 |
| GTGTGCGA | 0.164 |
| CGGTCGAC | 0.119 |
| GTTGAGGA | 0.0815 |

| Sequence | PBM E-score |
| --- | --- |
| AAAATAAA | 0.109 |
| ACCAAAAG | -0.163 |
| AATGCAGC | -0.124 |
| GGGGCATA | -0.174 |
| CCGGATAG | -0.00515 |
| CCAGTAAA | 0.0554 |
| AGTATTCA | -0.0848 |
| TCATCCCA | -0.051 |
| GACTCTAA | -0.22 |
| ACCGAGTG | 0.0119 |
| TCATAAGA | 0.144 |
| CGCGGTAC | 0.228 |
| TACATCCA | -0.0227 |
| AGGCTGCG | -0.191 |
| CCTGGGCC | -0.169 |
| TAATTTCA | 0.127 |
| TATTGAGA | -0.0242 |
| CCTTTAAG | -0.158 |
| ACCGGCGG | -0.0546 |
| CTAGGTGC | -0.223 |
| ACAGAGAA | -0.126 |
| CGGCCGAC | -0.0801 |
| ACTGGCGG | -0.0357 |
| GTAAGTCA | 0.203 |
| CGACCGGA | 0.161 |

| Sequence | PBM E-score |
| --- | --- |
| GTGGAAGA | -0.0422 |
| ACTTCCCA | -0.06 |
| GCATCAAC | 0.14 |
| AAAATTTA | 0.0992 |
| CCTGTAAG | -0.105 |
| CGAAAAAG | 0.238 |
| ACGCCCGA | -0.0248 |
| ACTTCCAA | -0.12 |
| ATGCACAT | 0.0271 |
| ATTTGTCA | 0.15 |
| ATGTAAGA | 0.0356 |
| ACACGACG | 0.267 |
| AATCAAGT | -0.106 |
| ACTAGAAT | 0.0374 |
| AACTATGT | -0.187 |
| ACCAGGGA | -0.189 |
| CCGGGGAG | -0.206 |
| AGCATTTG | -0.201 |
| AAAGAAGG | -0.138 |
| GCGAAAGC | 0.00449 |
| AGTACAGG | 0.0302 |
| ATAATGTC | 0.00514 |
| CCGTAACA | 0.22 |
| CGGCTGGC | 0.0413 |
| CACTCATA | 0.0482 |

| Sequence | PBM E-score |
| --- | --- |
| CGATGCCA | -0.0744 |
| AATTGTTG | -0.188 |
| GATAAAGA | 0.0607 |
| ACAGATTG | -0.127 |
| AAGGGCTC | -0.177 |
| GTGACTCA | -0.0695 |
| ACCACCTG | -0.0336 |
| GCAGTCAC | -0.136 |
| CAAACCGC | -0.265 |
| ACGCGCAA | 0.175 |
| ACCAATGC | -0.0345 |
| CCATCCGG | -0.213 |
| CGATATAA | 0.157 |
| AGAATTGG | -0.195 |
| CCGGAAAA | 0.0284 |
| AATTTGGA | -0.133 |
| CAAAGTAA | 0.0118 |
| ACCCTTCG | -0.0337 |
| ACTTCAAA | 0.00377 |
| ACTTTCGG | -0.106 |
| AACGATTC | 0.393 |
| CAAGTCGG | -0.0551 |
| GTAGGCAC | -0.077 |
| CTACACAG | -0.194 |
| ATGACGAA | 0.0841 |

| Sequence | PBM E-score |
| --- | --- |
| CTACCAGC | 0.00982 |
| ACTCGGAC | -0.0554 |
| CAGAGGGC | -0.324 |
| ACTACAGG | -0.0483 |
| AGTTTGAG | -0.136 |
| AGTATGAA | 0.00208 |
| AGACTGCC | -0.015 |
| CACCACCG | -0.119 |
| ACTAAGCT | -0.0599 |
| AGAAGCGG | -0.222 |
| CCGTGGGC | -0.0217 |
| AGCCAGTC | -0.162 |
| ATGAGGCA | -0.0685 |
| GACGTTGC | 0.0429 |
| ATATGCGC | 0.00411 |
| ATATCATA | 0.234 |
| AGGTACCC | -0.277 |
| CTTATAGC | 0.181 |
| CATCCAAC | -0.182 |
| GCAGTCGC | 0.0558 |
| ATAGGGGA | -0.186 |
| GGCCGTGA | -0.161 |
| CGGCACCG | 0.133 |
| AATGCCGC | 0.0774 |
| CACGACTC | 0.0449 |

| Sequence | PBM E-score |
| --- | --- |
| GAACAACC | -0.0117 |
| CAATGCTC | -0.0336 |
| ATTGTAAG | -0.0571 |
| CAAACTTG | -0.0902 |
| CATAGTAG | 0.138 |
| CTATGAGC | -0.12 |
| AAGTCCCC | -0.0701 |
| AACCCGGG | -0.101 |
| GAGGGTGA | -0.149 |
| TAGCTAGA | -0.114 |
| AAGTACGG | 0.209 |
| TACACCGA | 0.0294 |
| ATATGCCA | -0.0107 |
| AACCCGGT | -0.0316 |
| GAAAAGGC | -0.0151 |
| AACACATA | 0.102 |
| GTGCCTGA | -0.197 |
| TCAACAAA | -0.0193 |
| ACGCGCAC | 0.0784 |
| GAAGAGCA | -0.32 |
| CAAGAGCA | -0.269 |
| ATCCACCA | -0.176 |
| CCACGCAA | -0.0859 |
| CTTGCTTA | -0.255 |
| CCACCGAC | -0.23 |

| Sequence | PBM E-score |
| --- | --- |
| AAAGAGAT | 0.0315 |
| TACAGATA | 0.0525 |
| AATCCTGC | -0.122 |
| ACAACGGT | 0.115 |
| ACACGGTA | -0.00396 |
| AAACGATG | 0.458 |
| TAGCTGCA | -0.103 |
| ATATGGGC | -0.115 |
| GCTCAGAC | -0.0917 |
| AACCCGTT | 0.204 |
| ACTCGAGT | 0.13 |
| CACCCAGC | -0.127 |
| AGAATGAA | 0.0894 |
| TAGTTGGA | -0.109 |
| TCGGCTAA | 0.163 |
| AGACGGTA | -0.026 |
| GAAGCTCA | -0.213 |
| CGCCTCCC | -0.104 |
| AGGCAGCC | -0.0618 |
| AAAACGGG | 0.255 |
| AATTGGGG | -0.00677 |
| AGATCCTG | -0.161 |
